Laboratory results: patent US20260234258A1 (REPERTOIRE IMMUNE MEDICINES, published 2026)

Columns and labels:
[1] = target: T1, human CD8 (on CD8 T cells of human PBMC) (human, UniProt P01732 22-235); test: cell-based or functional assay
[2] = target: T1, human CD8 (on CD8 T cells of human PBMC); test: cell-based or functional assay; remark: listed apart in the source
[3] = target: T1, human CD8 (on CD8 T cells of human PBMC); test: flow cytometry on human PBMC, gated cell types; IL2 loading detected with anti-IL2; MFI
Method: (§1) Anti-human CD8-human IL2 molecules were evaluated for their ability to specifically bind and load IL2 on CD8 T cells. Briefly, […] human PBMC were co-cultured with indicated CD8-IL2 (human FC receptor) molecules from one of the concentrations ranging from 0.05 pM to 0.4 nM. Following one hour incubation with molecules, PBMC were washed twice with RPMI complete medium and washed once with PBS. The washed cells were stained with anti-IL2 (MQ1-17H12), anti-human kappa (MHK-49) and lineage surface markers CD3(UCHT1), CD4(SK3) and NK(HCD56) for 20 minutes, after which the cells were washed and analyzed using a flow cytometer. The binding affinity was quantified and represented as mean fluorescence intensity (MFI).

[4] = target: T1, human CD8 (on CD8 T cells of human PBMC); test: flow cytometry on human PBMC, CD8 T cells; bound molecule detected with anti-human kappa; MFI
Method: as §1

[5] = target: T2, mouse CD8 (on CD8 T cells of mouse splenocytes) (mouse, UniProt P01731 28-247); test: flow cytometry on mouse splenocytes, CD8 T cells; bound molecule detected with anti-human kappa; median fluorescence intensity
T2 construct: whole, on cells; also called mCD8
T2 sequence (P01731 28-247): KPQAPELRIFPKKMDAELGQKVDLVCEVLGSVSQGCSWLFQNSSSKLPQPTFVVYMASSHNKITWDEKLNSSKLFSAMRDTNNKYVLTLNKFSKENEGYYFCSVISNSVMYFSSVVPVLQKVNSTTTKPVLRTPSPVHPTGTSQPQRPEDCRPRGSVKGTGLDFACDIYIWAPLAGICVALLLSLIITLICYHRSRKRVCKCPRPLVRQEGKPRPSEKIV
Method: Anti-mouse CD8-human IL2 molecules were evaluated for their ability to specifically bind and load IL2 on CD8 T cells. Briefly, 1×10⁵ mouse splenocytes were incubated with indicated CD8-IL2 (human FC receptor) molecules from one of the concentrations ranging from 0.05 pM to 500 nM. Anti-mouse CD8 antibody was used as control. Following one hour incubation with molecules, splenocytes were washed twice with RPMI complete medium and once with PBS. The washed splenocytes were stained with anti-TL2 (MQ1-17H12), anti-human kappa (MHK-49) and lineage surface makers CD4(RM4-4), NK1.1(PK136) and CD19(6D5) for 20 minutes, after which the cells were washed and analyzed using flow cytometer. Mean fluorescence intensity data was analyzed using four parameter nonlinear regression method to calculated binding affinity in GraphPad prism.

T1 sequence (P01732 22-235 limits assumed): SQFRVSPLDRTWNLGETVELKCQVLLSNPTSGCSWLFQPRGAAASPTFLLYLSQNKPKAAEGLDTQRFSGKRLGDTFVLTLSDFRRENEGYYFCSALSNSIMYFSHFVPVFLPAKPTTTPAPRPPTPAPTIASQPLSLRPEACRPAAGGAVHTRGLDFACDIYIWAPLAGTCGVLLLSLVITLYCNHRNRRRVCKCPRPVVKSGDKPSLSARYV

B1: hCD8 IgG IL 2 (LC) (VH6/VK3) (antibody)
heavy: EVQLVQSGAEVKKPGATVKISCKASGYTFTDFTMHWVQQAPGKGLEWIGLVNPNNGGNIYAEKFQGRVTLTVDTSTSTAYMELSSLRSEDTAVYYCGRVPLYTSHGMDYWGQGTLVTVSSASTKGPSVFPLAPSSKSTSGGTAALGCLVKDYFPEPVTVSWNSGALTSGVHTFPAVLQSSGLYSLSSVVTVPSSSLGTQTYICNVNHKPSNTKVDKKV[human IgG1 Fc with L234A L235A N297A P329G (EU numbers) omitted]
light: EIVLTQSPATLSLSPGERATISCRASESVDSYDINSMHWYQQKPGQAPRLLIYRASHLQSGIPARFSGSGSRTDFTLTISSLEPEDFATYYCQQSNEDPLTFGQGTKLEIKRTVAAPSVFIFPPSDEQLKSGTASVVCLLNNFYPREAKVQWKVDNALQSGNSQESVTEQDSKDSTYSLSSTLTLSKADYEKHKVYACEVTHQGLSSPVTKSFNRGECGGGGSGGGGSGGGGSGGGGS[about 150 residues omitted]
notes: Humanized 02A01 (VH6/VK3) anti-human CD8 IgG with human IL-2 on the C-terminus of each light chain
- EC50 pSTAT5 Activation, CD8+ T cells [1]: 0.246 pM
- EC50 of Proliferation (percentage Ki67), CD8+ T cells [2]: 0.0551 nM
- EC50 (read off the curve) [3]: ~0.03 nM
- EC50 (read off the curve) [4]: ~0.03 nM

B2: mCD8 IgG IL2 (LC) (YTS105) (antibody)
heavy: EVQLKESGPGLVQPSQTLSLTCTVSGFSLTSNSVHWVRQPPGKGLEWMGGIWGDGDTDYNSALKSRLSISRDTSKNQVFLKMNSLQTDDTAIYFCTPLIGSWYFDFWGPGTMVTASSASTKGPSVFPLAPSSKSTSGGTAALGCLVKDYFPEPVTVSWNSGALTSGVHTFPAVLQSSGLYSLSSVVTVPSSSLGTQTYICNVNHKPSNTKVDKKV[human IgG1 Fc with L234A L235A N297A P329G (EU numbers) omitted]
light: DIVMTQSPSSLAVSAGERVTLNCKASQNVRNNIAWYQQKPGQSPKLLIYYASYRYTGVPDRFTGDGFGTDFTLAINSVQADDAAFYYCQRIYNSPYTFGAGTKLELIRTVAAPSVFIFPPSDEQLKSGTASVVCLLNNFYPREAKVQWKVDNALQSGNSQESVTEQDSKDSTYSLSSTLTLSKADYEKHKVYACEVTHQGLSSPVTKSFNRGECGGGGSGGGGSGGGGS[about 150 residues omitted]
- EC50 (read off the curve) [5]: ~0.05 nM
